# Assay results as given in ChEMBL document CHEMBL5606460, “ASAP - DENV-2 NS2B-NS3 protease fluorescence single point” (2024).
# About 110 (5.5%) of roughly 2,000 compounds showed an effect of 50% or more. The list shows a part of the results.
# Biological target: Genome polyprotein (dengue virus type 2) (UniProt P29990)
# [1] = Thailand/16681/1984, Concentration 25.0 uM, Number of replicates 1.0
smiles,measurement,setting,value
NCc1cccc(NC(=O)[C@H]2COCCN2C(=O)OCc2ccccc2)c1,inhibition,"Thailand/16681/1984, Concentration 49.5 uM, Number of replicates 2.0, Standard deviation 2.1985984026188525 %",-2.35%
same,inhibition,"Thailand/16681/1984, Concentration 99.01 uM, Number of replicates 2.0, Standard deviation 3.141935382649838 %",-2.12%
same,inhibition,"Thailand/16681/1984, Concentration 198.0 uM, Number of replicates 2.0, Standard deviation 3.1268064131286404 %",-1.63%
O=Cc1ccc(N2CCC(C(=O)NCCC(=O)NC3CCCCC3)CC2)cc1,inhibition,[1],14.2%
O=Cc1ccc(N2CCC(C(=O)Nc3cccc(Br)c3)CC2)cc1,inhibition,[1],13%
CC(C)(CO)NC(=O)c1cc(Cl)cc(NC(=O)c2ccccc2Oc2cccnc2)c1,inhibition,"Thailand/16681/1984, Concentration 49.5 uM, Number of replicates 2.0, Standard deviation 1.8446626979627367 %",-2.61%
same,inhibition,"Thailand/16681/1984, Concentration 99.01 uM, Number of replicates 2.0, Standard deviation 2.0703393680868953 %",-0.983%
same,inhibition,"Thailand/16681/1984, Concentration 198.0 uM, Number of replicates 2.0, Standard deviation 1.68374527170487 %",-0.13%
Cc1cc(-c2ccccc2C(=O)Nc2cnn(C)c2)cnc1F,inhibition,"Thailand/16681/1984, Concentration 49.5 uM, Number of replicates 2.0, Standard deviation 1.8621671270862812 %",-3.16%
same,inhibition,"Thailand/16681/1984, Concentration 99.01 uM, Number of replicates 2.0, Standard deviation 1.7076305651055699 %",-2.86%
same,inhibition,"Thailand/16681/1984, Concentration 198.0 uM, Number of replicates 2.0, Standard deviation 1.0479519697231194 %",-2.2%
Cc1cc(CO)c2cccc(NC(=O)c3ccno3)c2n1,inhibition,"Thailand/16681/1984, Concentration 49.95 uM, Number of replicates 2.0, Standard deviation 1.5532125200628712 %",10.1%
same,inhibition,"Thailand/16681/1984, Concentration 99.9 uM, Number of replicates 2.0, Standard deviation 1.6079353138198398 %",17.5%
O=Cc1ccc(N2CCC(C(=O)Nc3nc(Cl)nc4nc[nH]c34)CC2)cc1,inhibition,[1],13%
CC(=O)N[C@@H](CCCN)C(=O)N[C@@H](Cc1cccc2c(CO)cc(C)nc12)C(=O)O,inhibition,"Thailand/16681/1984, Concentration 49.95 uM, Number of replicates 2.0, Standard deviation 0.5992602451051136 %",3.09%
same,inhibition,"Thailand/16681/1984, Concentration 99.9 uM, Number of replicates 2.0, Standard deviation 0.2553775331963615 %",10.4%
Cc1cc(CO)c2cccc(Cc3cccc(C(=O)N[C@H](Cc4c[nH]cn4)C(=O)O)c3)c2n1,inhibition,"Thailand/16681/1984, Concentration 49.95 uM, Number of replicates 2.0, Standard deviation 1.5537254050624003 %",0.28%
same,inhibition,"Thailand/16681/1984, Concentration 99.9 uM, Number of replicates 2.0, Standard deviation 1.0362959215926437 %",8.77%
O=Cc1ccc(N2CCC(C(=O)NCCc3nc(-c4ccc(Cl)cc4)no3)CC2)cc1,inhibition,[1],2.16%
CNC(=O)c1cc(Cl)ccc1NS(=O)(=O)c1ccc(NS(C)(=O)=O)cc1,inhibition,"Thailand/16681/1984, Concentration 49.5 uM, Number of replicates 2.0, Standard deviation 0.6295365180266114 %",1.5%
same,inhibition,"Thailand/16681/1984, Concentration 99.01 uM, Number of replicates 2.0, Standard deviation 0.4200098669756753 %",3.13%
same,inhibition,"Thailand/16681/1984, Concentration 198.0 uM, Number of replicates 2.0, Standard deviation 0.4807630318175827 %",6.02%
CC(C)Nc1nc2ccc(C(=O)Nc3cncc(F)c3)cc2[nH]1,inhibition,"Thailand/16681/1984, Concentration 49.5 uM, Number of replicates 2.0, Standard deviation 1.9887225227811554 %",-0.703%
same,inhibition,"Thailand/16681/1984, Concentration 99.01 uM, Number of replicates 2.0, Standard deviation 1.2158747079656789 %",-0.15%
same,inhibition,"Thailand/16681/1984, Concentration 198.0 uM, Number of replicates 2.0, Standard deviation 2.839943587782754 %",1.93%
Cc1nc(C)c(CN2CCC(c3c[nH]c4cccnc34)CC2)s1,inhibition,"Thailand/16681/1984, Concentration 49.5 uM, Number of replicates 2.0, Standard deviation 0.3047269830898277 %",-1.17%
same,inhibition,"Thailand/16681/1984, Concentration 99.01 uM, Number of replicates 2.0, Standard deviation 0.9100574280517228 %",-1.83%
same,inhibition,"Thailand/16681/1984, Concentration 198.0 uM, Number of replicates 2.0, Standard deviation 0.6230614133961857 %",-2.99%
Nc1ccc(C(=O)Nc2nc3ccccc3s2)nc1,inhibition,"Thailand/16681/1984, Concentration 49.5 uM, Number of replicates 2.0, Standard deviation 0.7781913187102333 %",-1.85%
same,inhibition,"Thailand/16681/1984, Concentration 99.01 uM, Number of replicates 2.0, Standard deviation 0.46638176846239243 %",1.53%
same,inhibition,"Thailand/16681/1984, Concentration 198.0 uM, Number of replicates 2.0, Standard deviation 0.8805292616912934 %",22%
Cc1cnccc1NC(=O)c1ccnc(C(C)C)n1,inhibition,"Thailand/16681/1984, Concentration 49.5 uM, Number of replicates 2.0, Standard deviation 0.008671018658116017 %",-0.448%
same,inhibition,"Thailand/16681/1984, Concentration 99.01 uM, Number of replicates 2.0, Standard deviation 1.3196182588812893 %",1.15%
same,inhibition,"Thailand/16681/1984, Concentration 198.0 uM, Number of replicates 2.0, Standard deviation 0.7955645868412119 %",4.29%
Cc1cc(CO)c2cccc(CC(=O)Nc3nonc3C(N)=O)c2n1,inhibition,"Thailand/16681/1984, Concentration 49.95 uM, Number of replicates 2.0, Standard deviation 0.10454576349345478 %",97.1%
same,inhibition,"Thailand/16681/1984, Concentration 99.9 uM, Number of replicates 2.0, Standard deviation 0.006921524049853062 %",99%
Cc1cnccc1NC(=O)CNC(=O)CC(C)C,inhibition,"Thailand/16681/1984, Concentration 49.5 uM, Number of replicates 2.0, Standard deviation 0.9445281131901762 %",-0.087%
same,inhibition,"Thailand/16681/1984, Concentration 99.01 uM, Number of replicates 2.0, Standard deviation 0.670433522818339 %",-0.096%
same,inhibition,"Thailand/16681/1984, Concentration 198.0 uM, Number of replicates 2.0, Standard deviation 1.5079978445957176 %",-0.131%
Cc1cnccc1NC(=O)c1ccccc1OCc1ccccc1,inhibition,"Thailand/16681/1984, Concentration 49.5 uM, Number of replicates 2.0, Standard deviation 0.6770638332184061 %",-5.1%
same,inhibition,"Thailand/16681/1984, Concentration 99.01 uM, Number of replicates 2.0, Standard deviation 0.8934150705676202 %",-4.82%
same,inhibition,"Thailand/16681/1984, Concentration 198.0 uM, Number of replicates 2.0, Standard deviation 1.2952105869034334 %",-4.2%
C[C@H](NC(=O)C1CCN(c2ccc(C=O)cc2)CC1)c1ccc(Cl)cc1Cl,inhibition,[1],4.82%
Cc1cc(CO)c2cccc(Cc3ccccc3C(=O)N3CCO[C@@H](CN)C3)c2n1,inhibition,"Thailand/16681/1984, Concentration 49.95 uM, Number of replicates 2.0, Standard deviation 3.8059806233456843 %",-6.12%
same,inhibition,"Thailand/16681/1984, Concentration 99.9 uM, Number of replicates 2.0, Standard deviation 0.37872955767016525 %",-9.56%
